Reference: PMC5533585
No constants are given. Whether binding was seen depends on the method and setting. In cells and extracts the contact can be indirect. Some entries that bind do so weakly or less than the wild type. For some of these results: Sequences can lack the tags named with a protein.

Protein sequences, listed by entry. Tags and fused reporters are not part of them. Chains listed by the source or under a name are the forms on record and can include a tag or linker. Residues count along the entry.
NINL (1-702) tagged with GFP and 3×FLAG (Q9Y2I6, residues 1-702): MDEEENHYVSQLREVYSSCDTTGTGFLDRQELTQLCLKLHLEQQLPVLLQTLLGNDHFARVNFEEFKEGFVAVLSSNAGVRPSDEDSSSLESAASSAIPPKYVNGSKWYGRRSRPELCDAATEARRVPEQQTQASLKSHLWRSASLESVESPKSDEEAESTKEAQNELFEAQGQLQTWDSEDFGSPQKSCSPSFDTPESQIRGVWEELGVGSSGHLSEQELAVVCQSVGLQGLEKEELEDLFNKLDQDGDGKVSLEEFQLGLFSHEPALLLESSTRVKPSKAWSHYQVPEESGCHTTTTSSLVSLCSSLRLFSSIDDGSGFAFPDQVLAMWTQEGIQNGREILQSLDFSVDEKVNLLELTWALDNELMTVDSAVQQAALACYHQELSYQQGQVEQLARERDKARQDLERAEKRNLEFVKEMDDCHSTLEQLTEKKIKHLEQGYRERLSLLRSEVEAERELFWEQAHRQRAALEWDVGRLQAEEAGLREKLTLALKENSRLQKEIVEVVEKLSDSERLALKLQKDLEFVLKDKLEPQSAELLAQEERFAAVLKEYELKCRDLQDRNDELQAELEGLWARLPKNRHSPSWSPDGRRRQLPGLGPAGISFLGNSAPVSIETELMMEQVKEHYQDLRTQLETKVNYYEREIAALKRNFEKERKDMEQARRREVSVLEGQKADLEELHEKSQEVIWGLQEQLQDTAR
NINL (373-702) (Q9Y2I6, residues 373-702): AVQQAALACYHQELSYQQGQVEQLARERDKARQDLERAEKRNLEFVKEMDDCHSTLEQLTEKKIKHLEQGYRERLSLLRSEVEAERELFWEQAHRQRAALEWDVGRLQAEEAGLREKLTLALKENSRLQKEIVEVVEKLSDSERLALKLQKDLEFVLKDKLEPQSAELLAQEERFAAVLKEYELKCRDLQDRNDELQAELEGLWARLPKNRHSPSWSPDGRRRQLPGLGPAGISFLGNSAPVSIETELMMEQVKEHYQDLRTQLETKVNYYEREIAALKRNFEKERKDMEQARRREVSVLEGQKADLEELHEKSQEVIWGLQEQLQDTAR
UniProt Q8TD16, residues 1-422: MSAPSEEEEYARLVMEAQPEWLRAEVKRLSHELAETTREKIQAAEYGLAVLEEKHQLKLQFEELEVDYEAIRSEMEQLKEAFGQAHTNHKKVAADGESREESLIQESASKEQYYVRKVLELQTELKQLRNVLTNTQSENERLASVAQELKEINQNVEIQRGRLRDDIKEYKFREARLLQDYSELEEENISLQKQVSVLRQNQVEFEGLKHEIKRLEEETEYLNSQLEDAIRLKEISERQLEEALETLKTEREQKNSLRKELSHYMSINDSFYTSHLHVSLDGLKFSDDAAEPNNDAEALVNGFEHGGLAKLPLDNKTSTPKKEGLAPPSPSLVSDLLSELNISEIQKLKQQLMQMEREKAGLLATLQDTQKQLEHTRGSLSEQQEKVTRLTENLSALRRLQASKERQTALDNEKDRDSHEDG
UniProt P63172: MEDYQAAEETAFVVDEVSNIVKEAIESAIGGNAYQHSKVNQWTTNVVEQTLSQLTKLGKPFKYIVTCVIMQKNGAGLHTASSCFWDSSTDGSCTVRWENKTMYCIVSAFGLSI
UniProt Q14204: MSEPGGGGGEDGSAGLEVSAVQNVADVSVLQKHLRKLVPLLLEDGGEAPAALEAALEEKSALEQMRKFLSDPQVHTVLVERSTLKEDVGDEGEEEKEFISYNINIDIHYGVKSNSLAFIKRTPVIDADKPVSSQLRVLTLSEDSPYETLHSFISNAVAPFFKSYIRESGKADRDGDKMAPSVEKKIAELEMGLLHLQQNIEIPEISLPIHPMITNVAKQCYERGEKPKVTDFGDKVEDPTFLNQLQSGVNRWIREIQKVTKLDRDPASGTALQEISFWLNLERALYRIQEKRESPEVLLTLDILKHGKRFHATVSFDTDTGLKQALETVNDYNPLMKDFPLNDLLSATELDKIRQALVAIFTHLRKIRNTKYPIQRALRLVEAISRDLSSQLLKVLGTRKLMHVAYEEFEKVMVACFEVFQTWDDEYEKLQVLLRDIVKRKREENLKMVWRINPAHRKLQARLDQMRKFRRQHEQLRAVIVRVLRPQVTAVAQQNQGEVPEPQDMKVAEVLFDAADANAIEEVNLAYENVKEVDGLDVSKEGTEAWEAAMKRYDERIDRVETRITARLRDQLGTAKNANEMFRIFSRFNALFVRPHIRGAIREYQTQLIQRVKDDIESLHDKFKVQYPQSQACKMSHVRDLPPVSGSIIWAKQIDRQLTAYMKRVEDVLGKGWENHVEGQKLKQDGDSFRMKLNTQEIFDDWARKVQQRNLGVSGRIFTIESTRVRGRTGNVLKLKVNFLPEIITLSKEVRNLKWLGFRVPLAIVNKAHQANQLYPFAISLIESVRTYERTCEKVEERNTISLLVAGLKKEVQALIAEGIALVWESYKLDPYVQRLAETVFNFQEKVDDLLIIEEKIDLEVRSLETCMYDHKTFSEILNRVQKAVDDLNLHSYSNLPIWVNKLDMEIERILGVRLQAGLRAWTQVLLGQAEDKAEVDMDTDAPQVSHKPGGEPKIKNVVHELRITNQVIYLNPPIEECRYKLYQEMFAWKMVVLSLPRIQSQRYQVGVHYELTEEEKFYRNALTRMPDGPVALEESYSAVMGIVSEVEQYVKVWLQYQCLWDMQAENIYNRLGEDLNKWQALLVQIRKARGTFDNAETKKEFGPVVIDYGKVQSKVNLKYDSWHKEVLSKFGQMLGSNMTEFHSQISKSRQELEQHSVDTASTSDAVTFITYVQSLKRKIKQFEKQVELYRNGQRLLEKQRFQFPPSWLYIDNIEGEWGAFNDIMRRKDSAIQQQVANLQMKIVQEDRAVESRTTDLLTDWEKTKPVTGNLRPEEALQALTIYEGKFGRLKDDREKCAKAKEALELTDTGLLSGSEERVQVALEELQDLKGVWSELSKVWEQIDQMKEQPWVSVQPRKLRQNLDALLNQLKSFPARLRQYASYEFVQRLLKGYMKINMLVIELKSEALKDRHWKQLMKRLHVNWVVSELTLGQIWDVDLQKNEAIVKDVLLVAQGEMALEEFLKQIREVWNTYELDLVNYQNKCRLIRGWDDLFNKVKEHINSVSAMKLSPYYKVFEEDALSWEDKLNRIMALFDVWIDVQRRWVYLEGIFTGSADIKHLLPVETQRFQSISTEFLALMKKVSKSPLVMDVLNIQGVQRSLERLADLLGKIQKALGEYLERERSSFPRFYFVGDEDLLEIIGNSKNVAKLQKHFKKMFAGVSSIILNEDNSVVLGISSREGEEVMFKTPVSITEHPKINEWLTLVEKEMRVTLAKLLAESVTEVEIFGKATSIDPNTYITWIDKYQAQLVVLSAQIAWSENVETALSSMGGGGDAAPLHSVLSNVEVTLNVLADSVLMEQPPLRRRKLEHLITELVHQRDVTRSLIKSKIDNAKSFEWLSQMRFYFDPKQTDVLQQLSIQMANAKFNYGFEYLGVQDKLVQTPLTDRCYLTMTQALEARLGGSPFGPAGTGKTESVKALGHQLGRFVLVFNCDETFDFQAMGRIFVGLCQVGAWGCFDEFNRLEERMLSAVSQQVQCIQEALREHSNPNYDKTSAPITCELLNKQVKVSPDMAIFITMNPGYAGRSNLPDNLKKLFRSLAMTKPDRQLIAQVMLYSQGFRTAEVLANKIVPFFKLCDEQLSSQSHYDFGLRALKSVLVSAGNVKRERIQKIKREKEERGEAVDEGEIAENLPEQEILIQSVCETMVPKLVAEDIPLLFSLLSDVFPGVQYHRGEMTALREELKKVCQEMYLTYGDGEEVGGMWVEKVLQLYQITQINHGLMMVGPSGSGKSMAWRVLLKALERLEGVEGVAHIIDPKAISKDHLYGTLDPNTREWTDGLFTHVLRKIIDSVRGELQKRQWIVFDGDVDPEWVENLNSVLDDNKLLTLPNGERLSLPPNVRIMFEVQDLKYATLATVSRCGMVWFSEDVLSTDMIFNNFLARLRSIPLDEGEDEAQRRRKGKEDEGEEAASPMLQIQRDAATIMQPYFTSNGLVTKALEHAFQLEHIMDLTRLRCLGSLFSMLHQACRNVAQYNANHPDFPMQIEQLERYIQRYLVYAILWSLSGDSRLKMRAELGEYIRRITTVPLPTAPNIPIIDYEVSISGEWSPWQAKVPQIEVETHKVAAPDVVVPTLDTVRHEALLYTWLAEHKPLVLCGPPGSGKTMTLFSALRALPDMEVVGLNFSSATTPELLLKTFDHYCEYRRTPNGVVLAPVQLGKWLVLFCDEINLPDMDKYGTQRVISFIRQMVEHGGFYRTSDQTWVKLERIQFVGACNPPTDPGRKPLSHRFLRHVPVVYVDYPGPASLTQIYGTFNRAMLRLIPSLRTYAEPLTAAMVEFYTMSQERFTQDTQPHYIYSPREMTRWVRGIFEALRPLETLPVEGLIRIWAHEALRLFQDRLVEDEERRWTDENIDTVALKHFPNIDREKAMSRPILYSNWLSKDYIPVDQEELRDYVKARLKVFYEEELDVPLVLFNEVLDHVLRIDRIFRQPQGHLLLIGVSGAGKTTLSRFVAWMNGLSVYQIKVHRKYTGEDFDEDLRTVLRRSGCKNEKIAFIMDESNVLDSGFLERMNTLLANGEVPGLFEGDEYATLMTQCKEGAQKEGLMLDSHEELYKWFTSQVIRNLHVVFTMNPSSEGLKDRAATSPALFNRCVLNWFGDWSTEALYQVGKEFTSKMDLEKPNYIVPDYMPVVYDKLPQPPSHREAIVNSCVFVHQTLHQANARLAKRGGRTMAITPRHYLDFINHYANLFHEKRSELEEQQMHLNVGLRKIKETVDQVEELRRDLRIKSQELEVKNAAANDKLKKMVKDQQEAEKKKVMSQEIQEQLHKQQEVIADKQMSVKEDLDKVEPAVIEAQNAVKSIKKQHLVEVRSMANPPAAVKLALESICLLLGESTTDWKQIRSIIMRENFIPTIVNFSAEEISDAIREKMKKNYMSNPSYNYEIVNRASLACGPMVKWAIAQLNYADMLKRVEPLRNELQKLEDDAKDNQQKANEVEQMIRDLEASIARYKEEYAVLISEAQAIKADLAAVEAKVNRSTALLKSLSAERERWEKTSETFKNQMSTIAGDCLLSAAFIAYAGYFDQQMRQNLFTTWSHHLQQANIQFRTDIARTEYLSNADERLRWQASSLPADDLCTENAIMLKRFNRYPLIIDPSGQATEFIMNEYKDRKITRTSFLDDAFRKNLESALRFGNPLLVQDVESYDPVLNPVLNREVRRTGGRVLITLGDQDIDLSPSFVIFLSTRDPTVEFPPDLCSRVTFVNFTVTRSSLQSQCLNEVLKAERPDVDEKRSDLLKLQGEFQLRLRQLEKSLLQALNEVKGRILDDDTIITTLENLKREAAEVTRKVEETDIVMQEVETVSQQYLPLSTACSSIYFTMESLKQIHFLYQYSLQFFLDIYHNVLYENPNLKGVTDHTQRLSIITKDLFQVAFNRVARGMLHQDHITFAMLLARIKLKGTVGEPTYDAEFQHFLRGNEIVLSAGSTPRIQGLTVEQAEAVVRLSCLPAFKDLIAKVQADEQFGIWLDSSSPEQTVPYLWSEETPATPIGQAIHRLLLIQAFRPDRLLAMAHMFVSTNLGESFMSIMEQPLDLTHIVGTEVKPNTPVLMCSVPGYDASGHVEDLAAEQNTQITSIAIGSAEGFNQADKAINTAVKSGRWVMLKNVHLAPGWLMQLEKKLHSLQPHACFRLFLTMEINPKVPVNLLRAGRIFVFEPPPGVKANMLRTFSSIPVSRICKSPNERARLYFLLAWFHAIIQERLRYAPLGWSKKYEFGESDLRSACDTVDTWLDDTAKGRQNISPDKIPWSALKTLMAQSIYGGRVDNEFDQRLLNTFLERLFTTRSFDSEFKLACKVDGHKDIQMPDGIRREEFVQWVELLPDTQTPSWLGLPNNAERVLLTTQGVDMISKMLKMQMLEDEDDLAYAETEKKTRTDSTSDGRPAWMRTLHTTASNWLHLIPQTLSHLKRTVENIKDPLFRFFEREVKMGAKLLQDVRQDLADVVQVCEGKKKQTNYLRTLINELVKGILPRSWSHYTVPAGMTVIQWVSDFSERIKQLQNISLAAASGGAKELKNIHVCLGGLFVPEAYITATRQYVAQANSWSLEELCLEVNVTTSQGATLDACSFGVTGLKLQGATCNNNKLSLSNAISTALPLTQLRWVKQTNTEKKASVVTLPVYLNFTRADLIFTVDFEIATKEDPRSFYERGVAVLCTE

Tests used:
[1] = target: NINL (1-702) tagged with GFP and 3×FLAG (human) (UniProt Q9Y2I6); experiment: co-IP; transiently transfected HEK293-T cells; anti-FLAG M2 agarose, 2 hr, 4°C; elution with 3×FLAG peptide; Western blots with α-HC, α-p150, α-FAM160A2, α-KIF1C
NINL (373-702) (human) = NINL (373-702) (human) (UniProt Q9Y2I6); experiment: as above
[2] = target: T1, sfGFP-daple [1-545]-3×FLAG (human) (UniProt Q9P219); experiment: as above
T1 sequence: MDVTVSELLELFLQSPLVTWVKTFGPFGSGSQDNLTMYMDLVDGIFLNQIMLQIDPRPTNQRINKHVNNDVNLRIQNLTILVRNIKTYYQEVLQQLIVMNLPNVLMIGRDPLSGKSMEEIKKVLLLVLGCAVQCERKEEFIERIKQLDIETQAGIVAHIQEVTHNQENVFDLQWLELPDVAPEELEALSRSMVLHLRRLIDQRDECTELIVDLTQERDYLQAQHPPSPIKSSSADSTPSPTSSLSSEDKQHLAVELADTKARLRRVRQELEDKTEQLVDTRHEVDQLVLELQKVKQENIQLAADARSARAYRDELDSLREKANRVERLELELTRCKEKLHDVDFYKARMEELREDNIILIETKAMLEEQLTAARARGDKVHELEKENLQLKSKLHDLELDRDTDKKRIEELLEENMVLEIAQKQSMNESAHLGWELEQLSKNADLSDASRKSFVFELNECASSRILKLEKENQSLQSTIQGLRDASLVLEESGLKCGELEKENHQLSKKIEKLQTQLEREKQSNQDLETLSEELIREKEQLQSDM

[3] = target: T2, girdin [1-542]-sfGFP-3×FLAG (human) (UniProt Q3V6T2); experiment: as above
T2 sequence: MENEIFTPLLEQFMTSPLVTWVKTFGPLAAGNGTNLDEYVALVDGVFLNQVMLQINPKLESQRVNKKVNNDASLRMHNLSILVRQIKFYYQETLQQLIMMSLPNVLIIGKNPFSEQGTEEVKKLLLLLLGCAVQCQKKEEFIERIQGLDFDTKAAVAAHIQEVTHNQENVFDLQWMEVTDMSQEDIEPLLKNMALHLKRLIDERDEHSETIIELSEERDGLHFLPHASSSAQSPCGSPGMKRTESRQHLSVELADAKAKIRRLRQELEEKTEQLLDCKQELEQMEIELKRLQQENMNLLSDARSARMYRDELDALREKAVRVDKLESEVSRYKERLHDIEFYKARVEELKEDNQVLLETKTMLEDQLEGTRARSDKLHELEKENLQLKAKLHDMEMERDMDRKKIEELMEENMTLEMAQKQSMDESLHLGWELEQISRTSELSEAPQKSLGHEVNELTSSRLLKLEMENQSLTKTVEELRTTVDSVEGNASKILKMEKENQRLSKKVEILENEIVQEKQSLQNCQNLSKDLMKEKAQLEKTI

[4] = target: sfGFP-BICD2 [1-422]-3×FLAG (human) (UniProt Q8TD16); experiment: as above
[5] = target: T3, sfGFP-girdin [1-425]-3×FLAG (human) (UniProt Q3V6T2); experiment: as above
T3 sequence: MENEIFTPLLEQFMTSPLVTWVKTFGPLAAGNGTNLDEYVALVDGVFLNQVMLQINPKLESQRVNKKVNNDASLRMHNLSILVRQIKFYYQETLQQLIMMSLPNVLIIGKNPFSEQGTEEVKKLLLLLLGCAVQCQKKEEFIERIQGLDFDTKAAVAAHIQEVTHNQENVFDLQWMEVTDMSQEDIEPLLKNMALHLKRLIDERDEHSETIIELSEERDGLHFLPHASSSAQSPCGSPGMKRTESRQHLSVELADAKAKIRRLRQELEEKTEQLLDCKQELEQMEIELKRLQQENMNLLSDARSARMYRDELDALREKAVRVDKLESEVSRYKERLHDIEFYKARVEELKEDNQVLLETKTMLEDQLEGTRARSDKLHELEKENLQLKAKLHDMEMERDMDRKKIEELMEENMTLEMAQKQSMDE

p62-BioID-3×FLAG (human) [6] = target: p62-BioID-3×FLAG (human) (UniProt Q9UJW0); experiment: co-IP; stable HEK-293 cell lines; dynein lysis buffer (25 mM HEPES pH 7.4, 50 mM potassium acetate, 2 mM magnesium acetate, 1 mM EGTA, 10% glycerol, 1 mM DTT) with 0.2% Triton X-100, 0.5 mM Mg-ATP; anti-FLAG M2 agarose, 16 hr or 2 hr, 4°C; Western blots with α-HC and α-p150
p62-BioID-3×FLAG (human) [7] = target: p62-BioID-3×FLAG (human) (UniProt Q9UJW0); experiment: condition: only 'harsh' detergent lysis buffer (0.1% SDS, 0.5% sodium deoxycholate, 1% NP40); co-IP; as a1 but 'harsh' detergent lysis buffer (50 mM Tris-HCl pH 8.0, 150 mM NaCl, 0.1% SDS, 0.5% sodium deoxycholate, 1% NP40, 0.5 mM ATP, 1 mM DTT)
[8] = target: T4, sfGFP-HOOK3 [1-552]-3×FLAG (human) (UniProt Q86VS8); experiment: co-IP; transiently transfected HEK293-T cells; anti-FLAG M2 agarose, 2 hr, 4°C; elution with 3×FLAG peptide; Western blots with α-HC, α-p150, α-FAM160A2, α-KIF1C
T4 sequence: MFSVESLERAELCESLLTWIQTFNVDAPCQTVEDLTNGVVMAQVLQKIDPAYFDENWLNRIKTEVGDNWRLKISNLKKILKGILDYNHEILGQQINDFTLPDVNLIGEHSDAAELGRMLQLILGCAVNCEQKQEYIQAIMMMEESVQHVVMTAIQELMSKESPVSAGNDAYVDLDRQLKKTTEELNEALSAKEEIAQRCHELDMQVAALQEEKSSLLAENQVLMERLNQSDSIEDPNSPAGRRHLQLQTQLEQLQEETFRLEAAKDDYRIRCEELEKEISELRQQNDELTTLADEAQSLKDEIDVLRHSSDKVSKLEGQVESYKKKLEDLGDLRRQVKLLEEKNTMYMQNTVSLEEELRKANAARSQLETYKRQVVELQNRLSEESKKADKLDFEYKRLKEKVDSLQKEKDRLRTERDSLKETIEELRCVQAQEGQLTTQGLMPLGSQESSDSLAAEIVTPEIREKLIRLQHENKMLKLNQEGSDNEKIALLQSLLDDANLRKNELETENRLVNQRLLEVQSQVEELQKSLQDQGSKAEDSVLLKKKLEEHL

[9] = target: T5, NIN (1-693) tagged with GFP and 3×FLAG (human) (UniProt Q8N4C6); experiment: as above
T5 sequence: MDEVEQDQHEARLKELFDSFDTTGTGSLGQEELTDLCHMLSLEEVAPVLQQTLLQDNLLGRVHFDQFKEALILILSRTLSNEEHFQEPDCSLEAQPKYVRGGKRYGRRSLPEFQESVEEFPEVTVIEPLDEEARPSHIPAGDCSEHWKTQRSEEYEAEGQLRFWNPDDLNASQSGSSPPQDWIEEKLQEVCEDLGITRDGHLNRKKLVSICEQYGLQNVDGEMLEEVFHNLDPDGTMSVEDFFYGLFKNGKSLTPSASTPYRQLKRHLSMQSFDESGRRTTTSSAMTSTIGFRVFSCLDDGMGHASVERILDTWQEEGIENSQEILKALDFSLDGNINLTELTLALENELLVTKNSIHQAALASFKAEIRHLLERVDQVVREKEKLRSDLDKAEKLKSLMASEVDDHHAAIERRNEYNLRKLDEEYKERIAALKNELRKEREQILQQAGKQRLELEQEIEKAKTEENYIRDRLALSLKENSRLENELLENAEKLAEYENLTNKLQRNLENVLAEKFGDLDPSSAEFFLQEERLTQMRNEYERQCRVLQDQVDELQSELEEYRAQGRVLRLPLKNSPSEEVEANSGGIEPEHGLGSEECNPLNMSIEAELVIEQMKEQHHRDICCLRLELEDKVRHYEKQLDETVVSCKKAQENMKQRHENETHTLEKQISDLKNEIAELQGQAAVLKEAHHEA

NIN (353-580) (human) = target: T6, NIN (353-580) (human) (UniProt Q8N4C6); experiment: as above
T6 sequence: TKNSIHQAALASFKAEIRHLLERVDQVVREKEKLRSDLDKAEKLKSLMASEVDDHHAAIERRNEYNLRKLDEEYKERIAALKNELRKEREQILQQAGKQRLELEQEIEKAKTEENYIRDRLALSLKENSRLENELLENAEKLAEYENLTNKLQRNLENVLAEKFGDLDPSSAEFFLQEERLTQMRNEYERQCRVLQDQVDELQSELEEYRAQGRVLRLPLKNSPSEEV

p62-BioID-3×FLAG (human) [10] = target: p62-BioID-3×FLAG (human) (UniProt Q9UJW0); experiment: co-IP; stable HEK-293 cell lines; anti-FLAG M2 agarose, 16 hr, 4°C; 'mild' detergent lysis buffer (50 mM Tris-HCl pH 7.4, 100 mM NaCl, 0.2% Triton X-100, 1 mM DTT, 0.5 mM ATP); elution with 3×FLAG peptide; Western blots with α-HC and α-p150
[11] = target: LIC1-BioID-3×FLAG (human) (UniProt Q9Y6G9); experiment: co-IP; stable HEK-293 cell lines; dynein lysis buffer (25 mM HEPES pH 7.4, 50 mM potassium acetate, 2 mM magnesium acetate, 1 mM EGTA, 10% glycerol, 1 mM DTT) with 0.2% Triton X-100, 0.5 mM Mg-ATP; anti-FLAG M2 agarose, 16 hr or 2 hr, 4°C; Western blots with α-HC and α-p150
[12] = target: LIC2-BioID-3×FLAG (human) (UniProt O43237); experiment: as above
[13] = target: BioID-TCTEX1-3×FLAG (human) (UniProt P63172); experiment: as above

| binding [1] | binding (NINL (373-702) (human)) | binding [2] | binding [3] | binding [5] | binding (p62-BioID-3×FLAG (human) [6]) | binding (p62-BioID-3×FLAG (human) [7]) | binding [8] | binding [9] | binding (NIN (353-580) (human)) | binding (p62-BioID-3×FLAG (human) [10]) | binding [11] | binding [12] | binding [13] | Substance | binding [4] |
| --- | --- | --- | --- | --- | --- | --- | --- | --- | --- | --- | --- | --- | --- | --- | --- |
| binds | binds | binds | binds | binds | binds |  |  |  |  |  |  |  |  | cytoplasmic dynein-1 heavy chain (from UniProt Q14204 1-4646) | binds |
| binds | binds | binds | binds | binds | binds | no binding | binds | binds | no binding | binds | binds | binds | binds | p150 dynactin subunit (from UniProt Q14203-1 1-1278) | binds |
